Source: the supplement of paper PMC10441789
Some of the results follow. Antibody binding of pooled human sera (four to six donors per pool; dilution not stated) to peptides of the Trypanosoma cruzi antigen TSSA on microarrays. Quantile-normalised fluorescence in arbitrary units, mean of duplicate arrays; higher = more binding. No active / inactive call. The uninfected pools are read here as the healthy donors of the same country. The strongest signals lie near the top of the scale (about 60,000).

Columns and labels:
Experiment in all cases: antibody binding signal (normalised fluorescence) (arbitrary fluorescence units); higher = stronger serum antibody binding to peptide
[1] = system: pooled sera of chronic Chagas disease patients, Argentina
Protocol: (§1)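 Microarray of 15-residue peptides over residues 30-55 of Trypanosoma cruzi TSSAII, each with 1 to 10 substitutions at naturally variable positions, probed with one serum pool per country.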

[2] = system: pooled sera of chronic Chagas disease patients, Bolivia
Protocol: as §1

[3] = system: pooled sera of chronic Chagas disease patients, Brazil
Protocol: as §1

[4] = system: pooled sera of chronic Chagas disease patients, Colombia
Protocol: as §1

[5] = system: pooled sera of chronic Chagas disease patients, Mexico
Protocol: as §1

[6] = system: pooled sera of chronic Chagas disease patients, USA
Protocol: as §1

[7] = system: pooled sera of uninfected people, Argentina
Protocol: as §1

[8] = system: pooled sera of uninfected people, Bolivia
Protocol: as §1

[9] = system: pooled sera of uninfected people, Brazil
Protocol: as §1

[10] = system: pooled sera of uninfected people, Colombia
Protocol: as §1

[11] = system: pooled sera of uninfected people, Mexico
Protocol: as §1

[12] = system: pooled sera of uninfected people, USA
Protocol: as §1

Sequence	antibody binding signal [1]	antibody binding signal [2]	antibody binding signal [3]	antibody binding signal [4]	antibody binding signal [5]	antibody binding signal [6]	antibody binding signal [7]	antibody binding signal [8]	antibody binding signal [9]	antibody binding signal [10]	antibody binding signal [11]	antibody binding signal [12]
KDKKPATGGAPSQPG	414	1230	8950	460	338	678	243	518	96.1	94	97.3	89.3
STPPSGTENKAATGG	55900	51100	53700	459	8130	43000	3600	707	396	965	303	698
TPPSGKDNKAAAGGT	769	218	1010	559	33800	2880	301	646	688	215	90.6	118
TDKKPATGGAPSQSG	1470	655	1810	2090	1400	1420	480	1310	161	150	168	171
GTDNKPAAGETPSPS	1760	279	41200	984	245	4490	141	689	524	177	525	1930
DNKPAAGETPSPSGA	202	295	14100	364	209	4060	131	305	314	219	274	422
SGKEKKAATGEAPSQ	17800	4490	20800	1460	3540	19800	448	166	87.3	230	86.2	124
GTDNKTATGETPSQP	1150	4280	37800	364	219	7720	126	585	1550	129	159	178
SGTDNKPATGGAPSP	9030	20300	46000	4070	647	3380	288	1410	330	290	469	315
GKEKKPAAGEAPSPS	2640	294	1180	1750	3180	11700	135	78.7	82.1	113	78.4	268
TPPSGKDKKPATGET	12900	4580	9380	344	39800	1710	368	625	120	299	1640	571
TDNKAATGEAPSPSG	25700	36500	32700	74.8	136	29000	166	276	202	115	106	117
DNKTAAGEAPSQSGA	422	16600	11600	401	317	5980	117	240	268	167	186	126
TDKKPAAGEAPSPPG	805	253	18700	342	189	14400	107	319	201	77.6	122	76.8
SGKEKKTATGETPSP	2290	510	2790	1220	1900	8770	525	229	102	120	184	558
KAATGEAPSQPGASS	28100	16200	47000	150	323	24500	315	139	141	126	164	149
TPPSGKENKPAAGGT	33000	5410	10600	1040	14700	14300	4800	2360	859	566	283	439
GKDNKPATGETPSQP	35600	22400	43300	2610	3570	29100	462	806	439	316	1980	149
GTENKTAAGEAPSPP	25600	811	5610	630	971	9250	193	361	212	253	151	125
GTDKKTATGGTPSQP	504	582	816	4940	526	1120	476	186	227	646	892	110
DKKTAAGEAPSPPGA	320	215	804	395	456	6160	159	114	142	1090	447	151
ENKPAAGETPSQSGA	1490	1630	21700	440	434	4860	168	304	306	240	182	194
KENKAAAGGAPSQPG	171	248	7670	1260	235	1440	218	81.5	112	108	75.4	115
KTAAGETPSQPGASS	781	1660	30300	181	466	555	162	1360	158	242	232	207
TENKTATGETPSQPG	20200	3390	34400	203	157	7580	106	756	294	238	187	234

Sequence	antibody binding signal [1]	antibody binding signal [2]	antibody binding signal [3]	antibody binding signal [4]	antibody binding signal [5]	antibody binding signal [6]	antibody binding signal [7]	antibody binding signal [8]	antibody binding signal [9]	antibody binding signal [10]	antibody binding signal [11]	antibody binding signal [12]
TPPSGTDKKAAAGGA	22900	4420	30400	5120	39600	2000	718	199	439	232	1000	271
DKKAATGGTPSPSGA	600	556	288	2620	600	1170	298	100	958	1110	85.1	178
TEKKTAAGEAPSPSG	649	245	620	728	509	7180	211	198	183	1090	281	258
GTENKTAAGGAPSQS	27500	626	763	5190	1150	666	440	370	742	310	506	176
GKDKKPAAGEAPSPP	2470	534	8250	3950	3800	12100	121	73.4	107	112	75.8	89.4
SGKDKKAAAGGTPSQ	605	225	310	3350	1580	2290	130	123	488	162	87.1	97.5
TDKKPAAGGAPSQPG	642	506	9210	5370	338	494	160	795	498	125	161	234
TPPSGTEKKAATGET	28300	13400	22400	468	2190	1380	657	210	284	475	175	116
SGTDNKTATGGTPSQ	583	933	44300	636	459	389	297	751	2010	170	216	306
TISTPPSGKENKPAA	20800	8590	23300	1140	6790	13200	5300	2160	369	685	257	903
GTEKKTAAGGAPSPP	437	585	272	6650	939	1010	192	478	162	389	599	140
PSGKDNKAATGETPS	3080	1300	13000	1970	1750	10800	300	437	249	191	123	140
GKEKKAATGEAPSQP	19100	17000	31900	7990	9830	20500	283	110	102	177	92.3	117
TDNKPAAGGAPSQSG	982	979	4360	1180	292	518	149	306	316	238	410	131
DNKPAAGETPSQPGA	1480	4480	38800	299	207	4800	129	703	353	344	341	142
SGKDKKPAAGGTPSQ	606	274	403	3030	1180	1130	112	71.5	585	638	87	90.8
KKTATGGTPSPSGAS	332	240	452	1260	220	1230	284	114	150	182	88.4	274
DKKPATGGTPSPPGA	648	619	4130	2300	545	545	258	426	1150	269	127	125
GTDNKAAAGEAPSPS	170	681	35600	231	153	12400	155	590	1480	82	119	82.8
GKDKKPAAGGAPSPS	243	203	147	1440	560	561	119	80.6	104	100	87.7	95.1
KDKKAAAGGTPSQPG	201	204	172	1690	290	999	216	74.3	606	142	136	87.2
ISTPPSGKDNKTATG	5830	851	2920	1880	15700	2290	267	349	149	199	101	275
TPPSGTEKKPAAGGT	44400	7220	43400	1090	38700	7540	1370	825	2960	687	316	1070
GTDKKAAAGETPSQS	254	299	2480	2430	378	1230	106	390	115	584	287	107
ENKTATGGAPSPPGA	481	1520	780	487	402	917	399	184	239	147	225	161
